# Hit rate of the full screen: of about 390,000 compounds, about 150 (0.038%) were called active. The inconclusive results got no clear call from the source; some entries with a clear call stand among them for comparison. Calls follow the shape of the dose curve; as a rule, active = well fitted inhibition curve with a large enough effect; inconclusive = small, poorly fitted or top-dose-only effect; inactive = no such curve, though single readings can be large or run the other way. A potency beside an inconclusive call is a rough fit, not a confirmed value.
# Biological target: Regulator of G-protein signaling 4 (Homo sapiens) (UniProt P49798)
# Chain of UniProt P49798 (P49798 whole entry, looked up): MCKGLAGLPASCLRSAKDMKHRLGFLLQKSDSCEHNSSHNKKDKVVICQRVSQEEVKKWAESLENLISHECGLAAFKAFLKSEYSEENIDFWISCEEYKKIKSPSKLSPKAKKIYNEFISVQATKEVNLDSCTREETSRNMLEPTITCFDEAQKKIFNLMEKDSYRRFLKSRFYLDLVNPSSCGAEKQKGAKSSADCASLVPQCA
# Assay: Inhibitors of Regulator of G Protein Signaling (RGS) 4: qHTS; also: nearly all actives have a fitted effect of over 75% in size
# Details: Transcreener GDP fluorescence polarization, RGS4-accelerated GTP hydrolysis; series mostly up to 114 µM
# In short: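 MLSMR compounds (23 nl, pin-transferred) preincubated 10 min at room temperature with a 500nM (2x) first reagent, then RGS4 at 900nM (2x) plus Transcreener GDP mix added; fluorescence polarization (620/688 nm) read before and after 90 min at 30 °C.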
# Potency is read from the fitted curve at half-maximal effect; tags tell the direction and shape of the fitted curve.
row,SMILES,Potency
1,CC(=O)c1c(C)[nH]c(C(=O)OCC(=O)Nc2cc(S(=O)(=O)N3CCCC3)ccc2Cl)c1C,inactive
2,O=C(Nc1ccc(NC(=O)c2ccco2)c(Cl)c1)c1ccc2c(c1)OCCO2,"inconclusive: 35.5 µM [inhibitor, partial curve, poor fit]"
3,CCn1nc([N+](=O)[O-])c(C(C#N)c2nc3cc(C(F)(F)F)ccc3s2)c(Cl)c1=O (stereo not drawn),"inconclusive: 50.1 µM [inhibitor, partial curve, poor fit]"
4,COC(=O)c1ccc[n+](CC(=O)Nc2ccc(OC(F)F)cc2)c1,"inconclusive: 50.1 µM [inhibitor, partial curve, poor fit]"
5,CCCCn1c(=O)[nH]c(=O)c2c1nc(Cn1ncc(Cl)c(Cl)c1=O)n2CCC,"inconclusive: 44.7 µM [inhibitor, partial curve, poor fit]"
6,COc1ccccc1-c1sc2ccccc2c1-c1ccc2c(c1)OCCO2,inactive
7,C/C(CC(=O)Nc1ccc(Cl)c(C(F)(F)F)c1)=N\NC(N)=S,"inconclusive: 100 µM [inhibitor, partial curve, poor fit]"
8,O=[N+]([O-])c1cc(C(F)(F)F)ccc1N1CCN(S(=O)(=O)c2ccc3ccccc3c2)CC1,"inconclusive: 100 µM [inhibitor, single point]"
9,COc1ccc(-c2cc3nc4n(c(=O)c3s2)CCCCC4)cc1,inactive
10,CCc1c(C(=O)NNC(=S)NCCc2ccccc2)csc1C,inactive
11,Nc1n[nH]c(=S)n1/N=C1/C(=O)Nc2ccccc21,"inconclusive: 20 µM [inhibitor, full curve, poor fit]"
12,Clc1cccc(-c2nnc(-c3ccccc3)o2)c1,inactive
13,c1ccc(-c2nccc(-c3ccc(-n4cnc5ccccc54)cc3)n2)nc1,"inconclusive: 79.4 µM [inhibitor, partial curve, poor fit]"
14,CC1CCCCC1NC(=O)/C(C#N)=C/c1ccccc1F (stereo not drawn),"inconclusive: 79.4 µM [inhibitor, partial curve, poor fit]"
15,Cc1nn(CCCC(=O)Nc2cc(Oc3ccccc3)cc([N+](=O)[O-])c2)c(C)c1[N+](=O)[O-],inactive
16,O=C(O)COc1ccccc1C(Nc1ccccn1)c1cc(Cl)c2cccnc2c1O (stereo not drawn),"inconclusive: 31.6 µM [inhibitor, full curve, poor fit]"
17,CC(=O)C(=Nc1ccccc1Cl)NNc1ccc(Cl)cc1,"inconclusive: 79.4 µM [inhibitor, partial curve, poor fit]"
18,O=C(CNc1ccc2ccccc2c1)N/N=C/c1ccncc1,"inconclusive: 89.1 µM [inhibitor, partial curve, poor fit]"

# — PubChem BioAssay AID504845 (National Center for Advancing Translational Sciences (NCATS), 2011)
